Test results: PubChem BioAssay AID624417 (National Center for Advancing Translational Sciences (NCATS), 2012)
Hit rate of the full screen: of about 410,000 compounds, about 6,400 (1.6%) were called active. Inconclusive results, whose numbers are uncertain, are shown with a selection of clear calls. The call rests on the fitted dose curve; in most records, active means well fitted inhibition curve with a large enough effect; inconclusive means small, poorly fitted or top-dose-only effect; inactive means no such curve, though single readings can be large or run the other way. No potency is given beside an inconclusive call; the fits are too rough.

Biological target: Glucagon-like peptide 1 receptor (Homo sapiens) (UniProt P43220)
Sequence of UniProt P43220 (P43220 whole entry, looked up): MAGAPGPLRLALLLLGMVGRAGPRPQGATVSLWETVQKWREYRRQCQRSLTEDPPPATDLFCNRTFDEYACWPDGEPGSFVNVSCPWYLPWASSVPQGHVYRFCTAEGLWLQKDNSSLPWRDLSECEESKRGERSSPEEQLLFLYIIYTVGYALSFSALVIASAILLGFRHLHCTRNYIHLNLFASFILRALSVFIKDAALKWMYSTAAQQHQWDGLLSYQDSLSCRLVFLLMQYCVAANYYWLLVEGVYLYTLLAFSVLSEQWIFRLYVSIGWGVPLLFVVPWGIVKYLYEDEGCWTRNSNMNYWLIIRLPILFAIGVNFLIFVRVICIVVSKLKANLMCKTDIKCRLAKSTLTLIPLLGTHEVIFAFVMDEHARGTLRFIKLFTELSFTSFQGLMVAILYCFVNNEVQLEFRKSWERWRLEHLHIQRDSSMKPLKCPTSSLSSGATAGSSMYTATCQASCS
Assay: qHTS of GLP-1 Receptor Inverse Agonists (Inhibition Mode); further: nearly all actives have a fitted effect of over 55% in size
Conditions: HEK293 GLP-1R CRE-luciferase, luminescence, 24 h, GLP-1R form is constitutively active; activity change, negative = inhibition: at 38.3 µM (top of the series) unless noted
Outline: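 Assay principle: reduced luminescence from a cAMP-responsive reporter in HEK293 cells co-expressing a constitutively active GLP-1R. Conditions: 24 hr compound incubation, 37 deg C, 5% CO2.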
On the % scale 0 is the no-effect control and ±100 the full control effect; potency means the concentration at half of the fitted maximal effect; tags describe the fitted curve by direction and shape.

SMILES	Potency	activity change, negative = inhibition
Cc1cc(C)c(NC(=O)c2cc(S(=O)(=O)N3CCC4(CC3)OCCO4)ccc2F)c(C)c1	inconclusive [inhibitor, partial curve, poor fit]	–
O=C(COc1ccc(F)cc1)N(c1ccccn1)C1CCCCC1	inconclusive [inhibitor, single point]	–
CCOP(=O)(OCC)/C(C#N)=C/c1c[nH]c2ccccc12	inconclusive [inhibitor, partial curve, poor fit]	–
COc1ccc(N2CCN(Cc3nc(N)nc(Nc4ccc(C)c(Cl)c4)n3)CC2)cc1	inconclusive [inhibitor, partial curve]	–
c1ccc(C2CCC(N3CCN(c4ccccc4)CC3)CC2)cc1 (centres undefined)	inconclusive [inhibitor, single point]	–
CCN(CC)CCNC(=O)C1c2ccccc2C(=O)N(CCOC)C1c1ccc(F)cc1 (centres undefined)	–	inactive: 0%
COc1ccc([C@@H](OC)[C@@]2(Cc3ccc(O)cc3)N=C(N)N(C)C2=O)cc1	inconclusive [inhibitor, single point]	–
CCN(CC)C(=O)C1=C(C)N(Cc2ccc(OC)cc2)C(=O)C(CC(=O)NC(c2ccccc2)c2ccccc2)C1 (centres undefined)	inconclusive [inhibitor, single point]	–
COc1cc(Cl)c(S(=O)(=O)NCCc2c(C)[nH]c3c(C)cccc23)cc1Cl	inconclusive [inhibitor, single point]	–
COc1cccc(C(=O)NCC(c2cccs2)N2CCc3ccccc32)c1 (centres undefined)	inconclusive [inhibitor, partial curve, poor fit]	–
O=C(NCCc1csc(-c2ccccc2)n1)c1c(F)cccc1Cl	inconclusive [inhibitor, single point]	–
CCc1ccc(NC(=O)N2CCOc3ccc(Cl)cc32)cc1	inconclusive [inhibitor, single point]	–
N=C(N)SCc1ccc(Cl)c2ccccc12	inconclusive [inhibitor, partial curve, poor fit]	–
FC(F)(F)c1ccccc1Cc1c(-c2ccc(Cl)cc2)nc2ccc(Cl)cn12	inconclusive [inhibitor, single point]	–
Cc1ccc(CN2CCC(c3nc4ccc(Cl)cc4[nH]3)CC2)cc1	inconclusive [inhibitor, single point]	–
CC(C)Cn1cc(NC(=O)N2CCN(c3cccc(Cl)c3)CC2)c2ccccc2c1=O	inconclusive [inhibitor, single point]	–
Cc1ccc(C)c(N2CCN(S(=O)(=O)c3ccc4[nH]c5c(c4c3)CCCCC5)CC2)c1	inconclusive [inhibitor, partial curve, poor fit]	–
Cc1ccc(Oc2nc(CN3CCOCC3)nc3sc4c(c23)CCC(C)C4)cc1 (centres undefined)	inconclusive [inhibitor, partial curve, poor fit]	–
COCCCN1CC(=O)N2C(c3cccc(C)c3)c3[nH]c4ccccc4c3C[C@H]2C1=O (some centres undefined)	inconclusive [inhibitor, single point]	–
CCOC(=O)CSC1=C(C#N)C(c2ccc(Cl)cc2)C(C(=O)OC)C(=O)N1 (centres undefined)	inconclusive [inhibitor, single point]	–

SMILES	Potency	activity change, negative = inhibition
CC(C)c1nc(N2CCN(C(=O)c3ccco3)CC2)c2c3c(sc2n1)CCCC3	inconclusive [inhibitor, partial curve, poor fit]	–
COc1cc(/C=N/N=C(N)N)ccc1OCc1ccccc1Cl	inconclusive [inhibitor, single point]	–
COc1ccc(S(=O)(=O)N2CCCCC2c2cc(C(=O)Nc3ccc4c(c3)OCO4)no2)cc1 (centres undefined)	inconclusive [inhibitor, single point]	–
COc1ccccc1C(=O)NCCn1cc(SCC(=O)Nc2ccccc2F)c2ccccc21	inconclusive [inhibitor, single point]	–
CC(C(=O)N1CCN(c2ccccc2F)CC1)c1ccc([N+](=O)[O-])cc1 (centres undefined)	inconclusive [inhibitor, partial curve, poor fit]	–
COc1ccc(CNc2ncc(-c3ccccc3)n2C)c2ccccc12	inconclusive [inhibitor, single point]	–
O=C(CSc1nnc(-c2ccccn2)n1Cc1ccccc1)NC1CCCC1	inconclusive [inhibitor, single point]	–
COc1ccc(Br)c(C=O)c1OS(=O)(=O)c1ccc(C)cc1	inconclusive [inhibitor, partial curve, poor fit]	–
CCC1(c2ccccc2)NC(=O)N(CC(=O)Nc2cc(C(F)(F)F)ccc2N2CCCC2)C1=O (centres undefined)	inconclusive [inhibitor, partial curve, poor fit]	–
COc1ccc(OC)c(NC(=O)C2(C)CCN2C(=O)C(C)(C)c2ccccc2)c1 (centres undefined)	inconclusive [inhibitor, single point]	–
CCCCn1nc(C(=O)Nc2cc(C(F)(F)F)ccc2N2CCOCC2)ccc1=O	inconclusive [inhibitor, single point]	–
O=C(COC(=O)c1ccc2ccccc2c1)NCc1ccccc1	–	inactive: 36.9%
COc1ccc(Cl)cc1NC(=O)C1CC(=O)N(c2ccc(F)cc2)C1 (centres undefined)	inconclusive [inhibitor, partial curve, poor fit]	–
CC(C)(C)n1ncc2c(=O)n(CC(=O)c3ccccc3)cnc21	–	inactive: -16.6%
CN(C)c1ncnc2c1ncn2[C@H]1CN(Cc2ccco2)C[C@@H](CO)O1	–	inactive: 18.6%
CC1CCCN(S(=O)(=O)c2ccc3c(c2)OCCO3)C1 (centres undefined)	inconclusive [inhibitor, single point]	–
CC1(C)CC2CC(C)(CN2S(=O)(=O)c2ccccc2[N+](=O)[O-])C1 (centres undefined)	inconclusive [inhibitor, single point]	–
CC(C)CCNC(=O)c1ccccc1SCC(=O)NC1CCCCCCC1	inconclusive [inhibitor, partial curve, poor fit]	–
CC(=O)c1ccc(-c2cnc3c(NC=O)cc(-c4ccccc4Oc4ccccc4)cn23)cc1	inconclusive [inhibitor, single point]	–
Cc1ccc(NCSc2ccc(Cl)cc2)cc1	inconclusive [inhibitor, single point]	–

SMILES	Potency	activity change, negative = inhibition
CC(C)(C)c1ccc(/C=C/C(=O)c2ccc(NC3=NCCCS3)cc2)cc1	inconclusive [inhibitor, partial curve, poor fit]	–
CCOC(=O)C1=CCN(S(=O)(=O)c2ccccc2Br)C1c1ccc(F)cc1 (centres undefined)	inconclusive [inhibitor, single point]	–
CCCCN(CCCC)C(=O)/C=C/c1cccc([N+](=O)[O-])c1	inconclusive [inhibitor, partial curve, poor fit]	–
CCOC(=O)c1[nH]c(C)c(CCC(=O)N2CCN(c3cccc(OC)c3)CC2)c1C	inconclusive [inhibitor, single point]	–
CCOC(=O)C(=NCCCN(C)C)NNc1cc(C(F)(F)F)ccc1Cl	inconclusive [inhibitor, single point]	–
CN(Cc1nc2ccccc2c(=O)[nH]1)C(=O)c1ccccc1OCc1ccc(Cl)cc1	inconclusive [inhibitor, full curve, poor fit]	–
O=C(NC1CCCCC1)N(CCN1CCCC1)Cc1cc2cc3c(cc2[nH]c1=O)OCCO3	–	inactive: 8.84%
COc1cc(OC)cc(-c2c(-c3cccs3)c3cc(-c4ccc(OC)cc4F)ccc3n2C)c1	inconclusive [inhibitor, partial curve, poor fit]	–
Cc1cccc(NC(=O)C(C)C(=O)c2ccccc2)c1 (centres undefined)	–	inactive: -12%
CN(c1ccccc1)S(=O)(=O)c1ccc(C(=O)NCc2ccccc2CN2CCCC2)cc1	inconclusive [inhibitor, partial curve, poor fit]	–
COc1ccc(C(=O)Nc2ccccc2Cc2ccccc2)c(OC)c1	inconclusive [inhibitor, partial curve, poor fit]	–
CC1=Nc2cc(C(=O)NCc3ccccc3Cl)ccc2Sc2c(C)ccc(C)c21	inconclusive [inhibitor, full curve, poor fit]	–
COc1ccc(C(=O)Nc2ccc(C(=O)Nc3nccs3)cc2)cc1[N+](=O)[O-]	–	inactive: 1.35%
O=C(NC(=S)Nc1ccccn1)c1ccco1	inconclusive [inhibitor, single point]	–
Cc1ccccc1-c1cc2c(nn1)-c1ccccc1C2=O	inconclusive [inhibitor, single point]	–
CCN(CC(=O)NCc1ccc(Cl)cc1)C(=O)CSc1cccc(C(F)(F)F)c1	inconclusive [inhibitor, partial curve, poor fit]	–
O=C(Nc1ccn(Cc2c(F)c(F)cc(F)c2F)n1)c1ccc(COc2ccc(Cl)cc2Cl)o1	inconclusive [inhibitor, single point]	–
O=C(CN1C(=O)C(c2ccc(F)cc2)=NC12CCCCCC2)Nc1ccccc1Cl	inconclusive [inhibitor, single point]	–
O=C(NCc1ccc2c(c1)OCO2)c1ccc(CSCc2cccc(Cl)c2)o1	inconclusive [inhibitor, partial curve, poor fit]	–
